# Measured values as given in the antibiotic and cytotoxicity screens of Wong et al. (2023).
# The list shows a part of the results.
# Assays:
# [1] = system: HSkMC (human skeletal muscle cells); assay: cytotoxicity call (relative viability < 0.9); conditions: 10 µM
# [2] = system: HepG2; assay: cytotoxicity call (relative viability < 0.9); conditions: 10 µM
# [3] = system: S. aureus RN4220; assay: growth inhibition call (relative growth <= 0.2); conditions: 50 µM
Structure (SMILES),cytotoxicity call [1],cytotoxicity call [2],growth inhibition call [3]
C[C@H](CO)N1C[C@H](C)[C@@H](CN(C)S(=O)(=O)c2ccc(F)cc2)Oc2ccc(NS(=O)(=O)c3ccc(F)cc3)cc2C1=O,inactive,inactive,inactive
COc1ccc(NC(=O)Nc2ccc3c(c2)CC(=O)N([C@H](C)CO)C[C@@H](C)[C@@H](CN(C)S(=O)(=O)c2cn(C)cn2)O3)cc1,inactive,inactive,inactive
COc1ccc(NC(=O)N(C)C[C@H]2OCCCC[C@@H](C)Oc3ccc(NC(=O)NC(C)C)cc3C(=O)N([C@@H](C)CO)C[C@H]2C)cc1,inactive,inactive,inactive
COc1ccc(S(=O)(=O)Nc2ccc3c(c2)C(=O)N([C@H](C)CO)C[C@@H](C)[C@@H](CN(C)Cc2ccncc2)O3)cc1,inactive,inactive,inactive
Cc1ccc(S(=O)(=O)Nc2cccc3c2O[C@@H](CN(C)S(C)(=O)=O)[C@@H](C)CN([C@@H](C)CO)C3=O)cc1,inactive,inactive,inactive
Cc1cc(-c2ccc(NN=C3C=Cc4c(S(=O)(=O)O)cc(S(=O)(=O)O)c(N)c4C3=O)c(C)c2)ccc1NN=C1C=Cc2c(S(=O)(=O)O)cc(S(=O)(=O)O)c(N)c2C1=O,inactive,active,inactive
COc1ccc(NC(=O)Nc2ccc3c(c2)C(=O)N([C@H](C)CO)C[C@H](C)[C@H](CN(C)C(=O)Nc2cccc4ccccc24)OCCCC[C@@H](C)O3)cc1,inactive,inactive,inactive
CN1C(=O)c2cc(NC(=O)C3CCC3)ccc2OC[C@@H]2O[C@@H](CC(=O)NCCc3ccncc3)CC[C@@H]21,inactive,inactive,inactive
C#CCN1[C@H](/C=C/C2CC2)[C@H](CCn2cc(-c3ccc(C(=O)NO)s3)nn2)OC(=O)[C@@H]1Cc1ccccc1,inactive,inactive,inactive
C[C@@H]1CN([C@@H](C)CO)S(=O)(=O)c2ccc(C#Cc3ccncc3)cc2O[C@@H]1CN(C)C(=O)C1CCC1,inactive,inactive,inactive
OCCCC1=C[C@H](c2ccc(CN3CCCC3)cc2)N(Cc2cc3c(cc2Br)OCO3)CC1,inactive,inactive,inactive
C=CCOC(=O)[C@@H]1[C@H]2C(=O)O[C@H](c3ccccc3)[C@H](c3ccccc3)N2[C@H](c2ccc(OCCOC(=O)[C@H]3C[C@H]4C(=O)N[C@@H](CCCCNC(C)=O)C(=O)N4[C@H]3c3ccc(O)cc3)cc2)[C@@]12C(=O)Nc1ccc(I)cc12,inactive,inactive,inactive
C[C@@H]1CN([C@@H](C)CO)C(=O)Cc2cc(NC(=O)Cn3cnnn3)ccc2O[C@@H]1CN(C)Cc1ccccc1,inactive,inactive,inactive
C[C@H]1CN([C@@H](C)CO)C(=O)c2cc(NS(=O)(=O)c3cn(C)cn3)ccc2O[C@@H]1CN(C)S(=O)(=O)c1ccc(F)cc1,inactive,inactive,inactive
CCn1ccnc1CO,inactive,inactive,inactive
O=C(C[C@@H]1C[C@@H]2c3cc(NS(=O)(=O)c4ccccc4)ccc3O[C@@H]2[C@H](CO)O1)NC1CCCCC1,inactive,inactive,inactive
O=C(CCCCCC(=O)N/N=C/[C@H](O)[C@H](O)[C@@H](O)[C@@H](O)CO)NO,inactive,inactive,inactive
C[C@H]1CN([C@@H](C)CO)C(=O)Cc2cc(NS(=O)(=O)c3ccccc3)ccc2O[C@@H]1CN(C)S(=O)(=O)c1cccs1,inactive,inactive,inactive
CO[C@@H]1CN(C)C(=O)c2ccc(NS(=O)(=O)CC(F)(F)F)cc2OC[C@H](C)N(C(=O)NC(C)C)C[C@@H]1C,inactive,inactive,inactive
COc1ccccc1-c1ccc2c(c1)O[C@H](CN(C)S(=O)(=O)c1ccccc1)[C@@H](C)CN([C@H](C)CO)S2(=O)=O,inactive,inactive,inactive
OC[C@H]1O[C@@H](O[C@@H]2[C@@H](CO)O[C@](O)(CO)[C@H]2O)[C@H](O)[C@@H](O)[C@H]1O,inactive,inactive,inactive
C[C@@H](NC(=O)c1ccnn1C)[C@H]1CCCO1,inactive,inactive,inactive
C[C@@H]1CN([C@H](C)CO)C(=O)c2cccc(NC(=O)Nc3ccc(C(F)(F)F)cc3)c2O[C@H]1CN(C)S(=O)(=O)c1ccc(Cl)cc1,inactive,inactive,inactive
CC1=C(/C=C/C(C)=C/C=C/C(C)=C/C=C/C=C(C)/C=C/C=C(C)/C=C/C2=C(C)CCCC2(C)C)C(C)(C)CCC1,inactive,inactive,inactive
O=C1C2CC3CC1CC(O)(C3)C2,inactive,inactive,inactive
C[C@@H]1CN([C@H](C)CO)C(=O)c2cccc(NC(=O)Nc3ccccc3)c2O[C@@H]1CN(C)S(=O)(=O)c1cn(C)cn1,inactive,inactive,inactive
Cc1ccc(S(=O)(=O)Nc2ccc3c(c2)CC(=O)N([C@H](C)CO)C[C@H](C)[C@@H](CN(C)S(C)(=O)=O)O3)cc1,inactive,inactive,inactive
O=C(N/N=C/[C@H](O)[C@@H](O)[C@H](O)CO)c1ccccn1,inactive,inactive,inactive

Structure (SMILES),cytotoxicity call [1],cytotoxicity call [2],growth inhibition call [3]
C[C@@H]1CN([C@H](C)CO)C(=O)c2cccc(NS(=O)(=O)c3ccc(F)cc3)c2O[C@H]1CN(C)CC1CC1,inactive,inactive,inactive
COc1ccc(-c2cnc3c(c2)C(=O)N([C@@H](C)CO)C[C@@H](C)[C@H](CN(C)S(=O)(=O)c2ccc(OC)cc2)O3)cc1,inactive,inactive,inactive
C[C@@H]1CN([C@H](C)CO)C(=O)c2cc(NS(=O)(=O)c3ccc(F)cc3)ccc2O[C@H]1CN(C)C(=O)Nc1ccc(C(F)(F)F)cc1,inactive,inactive,inactive
C[C@@H]1CN([C@@H](C)CO)C(=O)c2cc(NC(=O)c3ccccc3)ccc2O[C@@H](C)CCCCO[C@@H]1CN(C)C(=O)Cc1ccccc1,inactive,inactive,inactive
C[C@@H]1CN([C@H](C)CO)C(=O)c2cc(NC(=O)Nc3ccc(F)cc3)ccc2O[C@@H](C)CCCCO[C@H]1CN(C)S(=O)(=O)c1ccccc1,inactive,inactive,inactive
Cc1ccc2[nH]c(C)cc2c1,inactive,inactive,inactive
Cc1ccc(S(=O)(=O)Nc2ccc3c(c2)C(=O)N([C@@H](C)CO)C[C@H](C)[C@@H](CN(C)S(C)(=O)=O)OCCCC[C@H](C)O3)cc1,inactive,inactive,inactive
C[C@@H]1CN([C@@H](C)CO)C(=O)c2cccc(NC(=O)Nc3ccc(F)cc3)c2O[C@H]1CN(C)S(C)(=O)=O,inactive,inactive,inactive
C[C@@H]1CN([C@@H](C)CO)C(=O)c2cc(NC(=O)Cc3ccccc3)ccc2O[C@@H](C)CCCCO[C@@H]1CN(C)S(=O)(=O)c1ccc(F)cc1,inactive,inactive,inactive
CC(C)NCC(O)c1ccc2ccccc2c1.Cl (stereo not given),inactive,inactive,inactive
CC(=O)c1c(O)c(C)c(O)c2c1OC1=CC(=O)C(C(C)=O)C(=O)C12C (stereo not given),inactive,inactive,active
CC(Cn1cnc2c(N)ncnc21)OCP(=O)(O)O (stereo not given),inactive,active,inactive
C[C@@H]1CCCCO[C@@H](CN(C)C(=O)NC2CCCCC2)[C@@H](C)CN([C@H](C)CO)C(=O)c2cc(NC(=O)CCC(F)(F)F)ccc2O1,inactive,inactive,inactive
CC(C)NC(=O)Nc1cccc2c1O[C@H](CN(C)C(=O)NC1CCCCC1)[C@@H](C)CN([C@@H](C)CO)C2=O,inactive,inactive,inactive
COCCNC(=O)C[C@@H]1CC[C@H]2[C@@H](COc3ccc(NS(=O)(=O)c4ccc(Cl)cc4)cc3C(=O)N2C)O1,inactive,inactive,inactive
CCC(=O)N(C)C[C@@H]1Oc2ncc(C#C[C@@H](C)O)cc2C(=O)N([C@H](C)CO)C[C@@H]1C,inactive,inactive,inactive
CCS(=O)(=O)Nc1ccc2c(c1)C(=O)N(C)[C@@H]1CC[C@H](CC(=O)NCc3ccc(OC)cc3)O[C@H]1CO2,inactive,inactive,inactive
COc1ccc(-c2ccc3c(c2)O[C@H](CN(C)CC2CCOCC2)[C@H](C)CN([C@@H](C)CO)S3(=O)=O)cc1,inactive,inactive,inactive
O=C(O)CNC(=O)CNC(=O)Cn1nc(-c2ccccc2)ccc1=O,inactive,inactive,inactive
COc1ccc(-c2ccc3c(c2)O[C@@H](CN(C)CC2CCOCC2)[C@@H](C)CN([C@@H](C)CO)S3(=O)=O)cc1,inactive,inactive,inactive
COc1ccc(S(=O)(=O)N(C)C[C@@H]2OCCCC[C@@H](C)Oc3ccc(NS(C)(=O)=O)cc3C(=O)N([C@@H](C)CO)C[C@H]2C)cc1,inactive,inactive,inactive
C[C@H](CO)N1C[C@H](C)[C@H](CN(C)C(=O)Nc2ccccc2)Oc2ccc(NC(=O)CCCN(C)C)cc2C1=O,inactive,inactive,inactive
CO[C@@H]1CN(C)C(=O)c2ccc(NS(=O)(=O)CC(F)(F)F)cc2OC[C@H](C)N(C(=O)c2ccc3c(c2)OCO3)C[C@H]1C,inactive,inactive,inactive
C[C@H]1CN([C@@H](C)CO)C(=O)c2cccc(NS(=O)(=O)c3ccc(Cl)cc3)c2O[C@H]1CN(C)S(=O)(=O)c1cn(C)cn1,inactive,inactive,inactive
Cc1noc(C)c1S(=O)(=O)N(C)C[C@H]1OCCCC[C@@H](C)Oc2ccc(NC(=O)Nc3ccccc3)cc2C(=O)N([C@@H](C)CO)C[C@@H]1C,inactive,active,inactive
C[C@@H]1CN([C@@H](C)CO)C(=O)c2cccc(NC(=O)C3CC3)c2O[C@@H]1CN(C)C(=O)NC1CCCCC1,inactive,inactive,inactive
COc1ccc(S(=O)(=O)N(C)C[C@H]2OCCCC[C@H](C)Oc3ccc(NC(=O)Nc4c(C)noc4C)cc3C(=O)N([C@@H](C)CO)C[C@H]2C)cc1,inactive,active,inactive
